# According to publication PMC12040169 (PLOS Biology, 2025):
# Some of the results follow.
# Tested on: T1, C. trachomatis L2/434/Bu expressing GFP (CTL2-GFP)
# T1 construct: L2/434/Bu GFP intracellular growth in HeLa cells
# Design: species or system HeLa; C. trachomatis total inclusion area by high-content imaging, normalised to DMSO
# Details: total inclusion area; 28.5 h, 10 µM; inhibitor
# How it was run: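 Post-fluorescence-read fixation, DNA staining with Hoechst and high-content imaging; GFP inclusion area and number per well, and nuclei counts, used as proxies for bacterial growth and host viability.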
row,SMILES,% of control remaining
1,O=C1NCC2(CCN(C(=O)C3CCCC3)CC2)Oc2ccccc21 [CBK282920],82.3083
2,O=C1NC(=O)C(CC(=O)N2CCC3(CCN(C(=O)Cc4c[nH]c5ccccc45)C3)C2)N1 (stereo not shown) [CBK131436],103.395
3,Cc1cc(C)cc(Nc2c(-c3ccc(C(=O)O)cc3)nc3cnccn23)c1 [CBK287166],105.829
4,Cc1cccc(OCC(=O)NCC(c2cccs2)N2CCOCC2)c1 (stereo not shown) [CBK305426],98.2496
5,Cc1ccc(NC(=O)c2ccc3ccccc3n2)c(C)n1 [CBK200293],134.694
6,Cc1cc(C)c(C)c(S(=O)(=O)Nc2ccc(O)c(Sc3nc[nH]n3)c2)c1C [CBK267012],123.718
7,Cc1ccc2oc(C(=O)N(CCO)CCc3ccncc3)c(C)c2c1 [CBK281642],101.643
8,CN1CCN(CCC(=O)Nc2cccc(Cl)c2)CC1 [CBK070793C],120.643
9,CC(=O)C(C)Oc1ncn(-c2ccccc2)n1 (stereo not shown) [CBK008377],58.833
10,O=C(Cn1nc(-c2cc3c(s2)CCC3)oc1=O)N1CCCC1 [CBK284712],95.6065
11,O=C(Cc1ccccn1)NC(Cc1ccsc1)c1nccs1 (stereo not shown) [CBK282821],90.7043
12,O=C(NCCCn1ccnc1)c1cccs1 [CBK261740],94.7168
13,O=C(O)C1CCN(C2CC(=O)N(Cc3ccccc3)C2=O)CC1 (stereo not shown) [CBK287206],106.171
14,O=C(O)CCC(=O)N1N=C2C(=Cc3ccco3)CCCC2C1c1ccco1 (stereo not shown) [CBK296069],103.777
15,O=C(CCS(=O)(=O)c1cc(Cl)ccc1Cl)OCC(=O)c1ccccc1 [CBK261256],109.007
16,COC(=O)C1(Cc2ccccc2-c2ccncc2)CCOCC1 [CBK284709],98.4212
17,COc1cccc(C(=O)Nc2ccc(O)cc2C(=O)O)c1 [CBK268662],77.879
18,Cc1cn(CC(=O)N2CCN(c3ncccn3)CC2)c(=O)[nH]c1=O [CBK144513],108.001
19,Cc1ccc(C2=CCN(C(=O)c3cccc(S(=O)(=O)N(C)C)c3)CC2)cc1 [CBK298273],109.967
20,NC(=O)C(NCc1ccccc1)c1ccc(Cl)cc1 (stereo not shown) [CBK012748],63.0212

row,SMILES,% of control remaining
1,C=Cn1ncc(CN2CCC(O)(c3ccccc3C)CC2)c1C [CBK282582],94.0412
2,CC1(c2ccc(Br)cc2)NC(=O)CS1 (stereo not shown) [CBK018962],17.4498
3,O=S(=O)(c1ccc(-c2ccccc2)cc1)N1CCCN(Cc2cccc(F)c2F)CC1 [CBK063111],90.8701
4,Cn1c(COc2ccc(Cl)cc2Cl)nnc1SCC(=O)N1c2ccccc2SC2C=CC=CC21 (stereo not shown) [CBK268359],129.111
5,COc1cc(C)c(NC(=O)c2cnc(-c3ccc(F)cc3)c(-c3ccncc3)c2)cc1OC [CBK036575],88.2719
6,O=C(CCCn1cc([N+](=O)[O-])cn1)Nc1cc(C(F)(F)F)ccc1Cl [CBK293987],89.6225
7,O=C(NCc1ccc(F)cc1)c1ccc(Cn2ccnc2)cc1 [CBK297719],87.3364
8,Cc1[nH]c2ccccc2c1C(=O)CSc1nccn1Cc1ccccc1 [CBK297905],119.209
9,O=S(=O)(c1ccccc1C(F)(F)F)n1ccc2c(N3CCNCC3)nccc21 [CBK045605C],34.2963
10,Fc1ccc(CN2C3CCCC2CC(NC(=S)NC2CCCCC2)C3)cc1 (stereo not shown) [CBK121172],85.8382
11,COC(=O)c1ccc(C2N(Cc3ccccc3)CCN2Cc2ccccc2)cc1 [CBK265201],80.3732
12,Cc1c(-c2ccc(Cl)cc2Cl)nc2ccccc2c1C(=O)NCc1ccc(S(N)(=O)=O)cc1 [CBK265387],115.797
13,CS(=O)(=O)Nc1cc2ccccc2c(-c2ccsc2)n1 [CBK085748],112.13
14,N#CCCn1cc(C(=O)N2CCOCC2)c(-c2ccc(F)cc2)n1 [CBK306189],78.2929
15,COc1c(C)cccc1C(=O)N1CCCC(c2ccc(Nc3nc(C)cc(C)n3)cn2)C1 (stereo not shown) [CBK285989],93.9457
16,O=C(O)CC/C(=N\NC(=O)c1cccnc1)c1ccccc1 [CBK261305],90.155
17,Nc1cc2cc(F)ccc2nc1C1CCN(C(=O)C2CC2)CC1 [CBK284657],107.043
18,c1ccc(OCCOc2nccnc2-c2ccc3c(c2)OCO3)cc1 [CBK106714],94.9355
19,OCC1CCCN1c1cncc(-c2cccc3ccccc23)n1 (stereo not shown) [CBK065509],110.106
20,COc1ccc(NC(=O)[C@@H]2C=CCN2C(=O)C2CC2)cc1 [CBK284277],63.5117
